Measurements from patent publication US20030109503A1, “Pharmaceutical formulations comprising clavulanic acid alone or in combination with other beta-lactam antibiotics” (SmithKline Beecham p.l.c., priority 1995, published 2003).

Tested on: S. pneumoniae N1387

Compound: CC1(C)S[C@@H]2[C@H](NC(=O)[C@H](N)c3ccc(O)cc3)C(=O)N2[C@H]1C(=O)O [Amoxycillin, amoxycillin]
- lung bacterial counts versus non-treated control group at 96 h (further study (FIG. 2), amoxycillin 200 mg/kg oral q12 h, 96 h): not significantly different from those in the non-treated control group
- lung bacterial counts versus non-treated controls at 72 h (initial study (FIG. 1), infection 7.0 log 10 cfu per rat, two days of twice-daily therapy, 72 h): not significantly different from those in the non-treated control group
